Data published in patent US8669255B2, “Substituted octahydropyrrolo[1,2-a]pyrazines as calcium channel blockers” (AbbVie Inc., priority 2011, dated 2014).

The compounds below were run against human Cav2.2 (Homo sapiens, UniProt Q00975) (assay: In vitro assessment of calcium channel activity using FLIPR (Ca2+ influx in IMR32 cells)). Settings: IMR32 cells endogenously expressing human Cav2.2; 60 minute pre-incubation; 2 μM nifedipine; depolarized with 80 mM KCl; average of at least two runs unless marked (*).
Type: cell-based
Procedure: (i) In Vitro Assessment of Calcium Channel Activity Using FLIPR
The IMR32 cells were maintained in MEM media containing 10% (v/v) FBS, 1% (v/v) antibiotic/antimitotic, 1% (v/v) sodium pyruvate and 1% (v/v) MEM NEAA. Following dissociation in 0.05% (v/v) trypsin/EDTA, cells were seeded into black 1×96-well plates (Corning Cellbind) at a density of 1-1.2×10^5 cells/well and incubated in the maintenance media above for 48 hours at 37° C. Immediately prior to performing the assay the media was removed and cells were loaded for 1.5 hours with 1× Calcium 4 dye prepared in HBSS (137 mM NaCl, 5.4 mM KCl, 0.25 mM Na2HPO4, 0.44 mM KH2PO4, 1.3 mM CaCl2, 1 mM MgSO4, 4.2 mM NaHCO3) containing HEPES pH 7.4 at room temperature. After dye loading and a subsequent 60 minute pre-incubation with compounds (full log dilutions from 10 μM to 0.1 nM) in the presence of 1.3 mM CaCl2 and 2 μM nifedipine to block endogenous L-type channels, the external Ca^2+concentration was increased to 5 mM CaCl2 and the cells concomitantly depolarized with 80 mM KCl to assay channel activity. To determine the IC50 values, the percent inhibition of the compound at each concentration was determined relative to the activity in the absence of inhibitor, and data was fitted using non-linear regression sigmoidal dose response curve analysis with GraphPad Prism®. Unless otherwise indicated (*), the reported values are average values from at least two runs (i.e., n≧2).

**Q.** `CCC(CC)CN1CCN2C[C@@H](NS(=O)(=O)c3cccc(C(F)(F)F)c3)C[C@H]2C1` [Example 47, N-[(7S,8aS)-2-(2-ethylbutyl)octahydropyrrolo[1,2-a]pyrazin-7-yl]-3-(trifluoromethyl)benzenesulfonamide] was tested. Which IC50 did it give?
**A.** The IC50 was 0.29 µM.

**Q.** Which IC50 does the source give for `O=S(=O)(N[C@H]1C[C@H]2CN(Cc3cccc(Cl)c3)CCN2C1)c1cccc(C(F)(F)F)c1` [Example 48, N-[(7S,8aS)-2-(3-chlorobenzyl)octahydropyrrolo[1,2-a]pyrazin-7-yl]-3-(trifluoromethyl)benzenesulfonamide] here?
**A.** The IC50 was 0.6 µM.

**Q.** `Cc1cccc(CN2CCN3C[C@@H](NS(=O)(=O)c4cccc(C(F)(F)F)c4)C[C@H]3C2)c1` [Example 49, N-[(7S,8aS)-2-(3-methylbenzyl)octahydropyrrolo[1,2-a]pyrazin-7-yl]-3-(trifluoromethyl)benzenesulfonamide] was tested. Which IC50 did it give?
**A.** Its IC50 is 0.38 µM.

**Q.** With `O=S(=O)(N[C@H]1C[C@H]2CN(Cc3cc(Cl)cc(Cl)c3)CCN2C1)c1cccc(C(F)(F)F)c1` [Example 50, N-[(7S,8aS)-2-(3,5-dichlorobenzyl)octahydropyrrolo[1,2-a]pyrazin-7-yl]-3-(trifluoromethyl)benzenesulfonamide] as the compound, how does the IC50 read?
**A.** The IC50 was 0.89 µM.

**Q.** With `CC(C)(C)OC(=O)N1CCN2C[C@@H](NS(=O)(=O)Cc3ccc(Cl)cc3)C[C@H]2C1` [Example 51, tert-butyl (7S,8aS)-7-{[(4-chlorobenzyl)sulfonyl]amino}hexahydro-pyrrolo[1,2-a]pyrazine-2(1H)-carboxylate] as the compound, how does the IC50 read?
**A.** The IC50 was 2.53 µM.

**Q.** `CCC(CC)C(=O)N1CCN2C[C@@H](NS(=O)(=O)Cc3ccc(Cl)cc3)C[C@H]2C1` [Example 52, 1-(4-chlorophenyl)-N-[(7S,8aS)-2-(2-ethylbutanoyl)octahydropyrrolo[1,2-a]pyrazin-7-yl]methanesulfonamide] was tested. Which IC50 did it give?
**A.** The IC50 was 11 µM.

**Q.** `CCC(CC)CN1CCN2C[C@@H](NS(=O)(=O)Cc3ccc(Cl)cc3)C[C@H]2C1` [Example 53, 1-(4-chlorophenyl)-N-[(7S,8aS)-2-(2-ethylbutyl)octahydropyrrolo[1,2-a]-pyrazin-7-yl]methanesulfonamide] was tested. Which IC50 did it give?
**A.** The IC50 was 1.66 µM.

**Q.** Which IC50 does the source give for `O=C(c1ccc(F)c(C(F)(F)F)c1)N1CCN2C[C@H](Oc3cnc(C4CC4)cn3)C[C@H]2C1` [Example 55, [(7R,8aS)-7-[(5-cyclopropylpyrazin-2-yl)oxy]hexahydropyrrolo[1,2-a]-pyrazin-2(1H)-yl][4-fluoro-3-(trifluoromethyl)phenyl]methanone] here?
**A.** The IC50 was 2.96 µM.

**Q.** `CC(C)(C)OC(=O)N1CCN2C[C@H](Oc3ccc(Cl)cn3)C[C@H]2C1` [Example 56, tert-butyl (7R,8aS)-7-[(5-chloropyridin-2-yl)oxy]hexahydropyrrolo[1,2-a]-pyrazine-2(1H)-carboxylate] was tested. Which IC50 did it give?
**A.** The IC50 was 5.71 µM.

**Q.** For `Clc1ccc(O[C@@H]2C[C@H]3CNCCN3C2)nc1` [Example 57, (7R,8aS)-7-[(5-chloropyridin-2-yl)oxy]octahydropyrrolo[1,2-a]pyrazine], which IC50 is on record?
**A.** Its IC50 is greater than 30 µM.

**Q.** How did the IC50 turn out when `CC(C)(C)OC(=O)N1CCN2C[C@H](Oc3cccc(C(F)(F)F)n3)C[C@H]2C1` [Example 58A, tert-butyl (7R,8aS)-7-{[6-(trifluoromethyl)pyridin-2-yl]oxy}hexahydro-pyrrolo[1,2-a]pyrazine-2(1H)-carboxylate] was run?
**A.** The IC50 was 2.61 µM.

**Q.** Which IC50 does the source give for `O=C(CCC(F)(F)F)N1CCN2C[C@H](Oc3cccc(C(F)(F)F)n3)C[C@H]2C1` [Example 59, 4,4,4-trifluoro-1-[(7R,8aS)-7-{[6-(trifluoromethyl)pyridin-2-yl]oxy}-hexahydropyrrolo[1,2-a]pyrazin-2(1H)-yl]butan-1-one] here?
**A.** Its IC50 is 6.78 µM.

**Q.** Which IC50 does the source give for `O=C(CCCC(F)(F)F)N1CCN2C[C@H](Oc3cccc(C(F)(F)F)n3)C[C@H]2C1` [Example 60, 5,5,5-trifluoro-1-[(7R,8aS)-7-{[6-(trifluoromethyl)pyridin-2-yl]oxy}-hexahydropyrrolo[1,2-a]pyrazin-2(1H)-yl]pentan-1-one] here?
**A.** The IC50 was 3.02 µM.

**Q.** `CC(C)(C)OC(=O)N1CCN2C[C@@H](Oc3ccc(Cl)cn3)C[C@H]2C1` [Example 62, tert-butyl (7S,8aS)-7-[(5-chloropyridin-2-yl)oxy]hexahydropyrrolo[1,2-a]-pyrazine-2(1H)-carboxylate] was tested. Which IC50 did it give?
**A.** Its IC50 is greater than 30 µM.

**Q.** Which IC50 does the source give for `O=C(c1cccc(C(F)(F)F)c1)N1CCN2C[C@H](Oc3ccc(Cl)cn3)C[C@H]2C1` [Example 63, [(7R,8aS)-7-[(5-chloropyridin-2-yl)oxy]hexahydropyrrolo[1,2-a]pyrazin-2(1H)-yl][3-(trifluoromethyl)phenyl]methanone] here?
**A.** The IC50 was 1.1 µM.

**Q.** For `O=C(C1CCCCC1)N1CCN2C[C@H](Oc3ccc(Cl)cn3)C[C@H]2C1` [Example 64, [(7R,8aS)-7-[(5-chloropyridin-2-yl)oxy]hexahydropyrrolo[1,2-a]pyrazin-2(1H)-yl](cyclohexyl)methanone], which IC50 is on record?
**A.** The IC50 was 5.68 µM.

**Q.** For `O=C(c1cccc(C(F)(F)F)c1)N1CCN2C[C@@H](Oc3ccc(Cl)cn3)C[C@@H]2C1` [Example 66, [(7S,8aR)-7-[(5-chloropyridin-2-yl)oxy]hexahydropyrrolo[1,2-a]pyrazin-2(1H)-yl][3-(trifluoromethyl)phenyl]methanone], which IC50 is on record?
**A.** The IC50 was 5.55 µM.

**Q.** With `O=C(c1cccc(C(F)(F)F)c1)N1CCN2C[C@@H](Oc3cnc(C4CC4)cn3)C[C@@H]2C1` [Example 67, [(7S,8aR)-7-[(5-cyclopropylpyrazin-2-yl)oxy]hexahydropyrrolo[1,2-a]-pyrazin-2(1H)-yl][3-(trifluoromethyl)phenyl]methanone] as the compound, how does the IC50 read?
**A.** The IC50 was 5.61 µM.

**Q.** With `O=C(c1cccc(C(F)(F)F)c1)N1CCN2C[C@H](Oc3cnc(C4CC4)cn3)C[C@H]2C1` [Example 68, [(7R,8aS)-7-[(5-cyclopropylpyrazin-2-yl)oxy]hexahydropyrrolo[1,2-a]-pyrazin-2(1H)-yl][3-(trifluoromethyl)phenyl]methanone] as the compound, how does the IC50 read?
**A.** The IC50 was 2.71 µM.

**Q.** How did the IC50 turn out when `O=C(c1cc(F)cc(C(F)(F)F)c1)N1CCN2C[C@H](Oc3cnc(C4CC4)cn3)C[C@H]2C1` [Example 70, [(7R,8aS)-7-[(5-cyclopropylpyrazin-2-yl)oxy]hexahydropyrrolo[1,2-a]-pyrazin-2(1H)-yl][3-fluoro-5-(trifluoromethyl)phenyl]methanone] was run?
**A.** The IC50 was 4.2 µM.

**Q.** How did the IC50 turn out when `O=C(c1ccc(C(F)(F)F)cc1)N1CCN2C[C@H](Oc3cnc(C4CC4)cn3)C[C@H]2C1` [Example 71, [(7R,8aS)-7-[(5-cyclopropylpyrazin-2-yl)oxy]hexahydropyrrolo[1,2-a]-pyrazin-2(1H)-yl][4-(trifluoromethyl)phenyl]methanone] was run?
**A.** Its IC50 is 2.68 µM.

**Q.** With `O=C(c1cc(C(F)(F)F)ccc1Cl)N1CCN2C[C@H](Oc3cnc(C4CC4)cn3)C[C@H]2C1` [Example 72, [2-chloro-5-(trifluoromethyl)phenyl][(7R,8aS)-7-[(5-cyclopropylpyrazin-2-yl)oxy]hexahydropyrrolo[1,2-a]pyrazin-2(1H)-yl]methanone] as the compound, how does the IC50 read?
**A.** The IC50 was 1.91 µM.

**Q.** `O=C(c1cc(F)c(Cl)cc1F)N1CCN2C[C@H](Oc3cnc(C4CC4)cn3)C[C@H]2C1` [Example 73, (4-chloro-2,5-difluorophenyl)[(7R,8aS)-7-[(5-cyclopropylpyrazin-2-yl)-oxy]hexahydropyrrolo[1,2-a]pyrazin-2(1H)-yl]methanone] was tested. Which IC50 did it give?
**A.** Its IC50 is 2.1 µM.

**Q.** For `O=C(c1cc(F)c(F)c(F)c1)N1CCN2C[C@H](Oc3cnc(C4CC4)cn3)C[C@H]2C1` [Example 74, [(7R,8aS)-7-[(5-cyclopropylpyrazin-2-yl)oxy]hexahydropyrrolo[1,2-a]-pyrazin-2(1H)-yl](3,4,5-trifluorophenyl)methanone], which IC50 is on record?
**A.** Its IC50 is 10.8 µM.

**Q.** Which IC50 does the source give for `O=C(c1ccccc1C(F)(F)F)N1CCN2C[C@H](Oc3cnc(C4CC4)cn3)C[C@H]2C1` [Example 75, [(7R,8aS)-7-[(5-cyclopropylpyrazin-2-yl)oxy]hexahydropyrrolo[1,2-a]-pyrazin-2(1H)-yl][2-(trifluoromethyl)phenyl]methanone] here?
**A.** The IC50 was 7.94 µM.

**Q.** `O=C(c1c(F)cccc1C(F)(F)F)N1CCN2C[C@H](Oc3cnc(C4CC4)cn3)C[C@H]2C1` [Example 76, [(7R,8aS)-7-[(5-cyclopropylpyrazin-2-yl)oxy]hexahydropyrrolo[1,2-a]-pyrazin-2(1H)-yl][2-fluoro-6-(trifluoromethyl)phenyl]methanone] was tested. Which IC50 did it give?
**A.** Its IC50 is 6.99 µM.

**Q.** With `O=C(c1ccc(F)cc1C(F)(F)F)N1CCN2C[C@H](Oc3cnc(C4CC4)cn3)C[C@H]2C1` [Example 77, [(7R,8aS)-7-[(5-cyclopropylpyrazin-2-yl)oxy]hexahydropyrrolo[1,2-a]-pyrazin-2(1H)-yl][4-fluoro-2-(trifluoromethyl)phenyl]methanone] as the compound, how does the IC50 read?
**A.** Its IC50 is 9.96 µM.

**Q.** With `O=C(c1ccc(C(F)(F)F)cc1F)N1CCN2C[C@H](Oc3cnc(C4CC4)cn3)C[C@H]2C1` [Example 78, [(7R,8aS)-7-[(5-cyclopropylpyrazin-2-yl)oxy]hexahydropyrrolo[1,2-a]-pyrazin-2(1H)-yl][2-fluoro-4-(trifluoromethyl)phenyl]methanone] as the compound, how does the IC50 read?
**A.** Its IC50 is 2.33 µM.

**Q.** How did the IC50 turn out when `O=C(c1cc(C(F)(F)F)ccc1F)N1CCN2C[C@H](Oc3cnc(C4CC4)cn3)C[C@H]2C1` [Example 79, [(7R,8aS)-7-[(5-cyclopropylpyrazin-2-yl)oxy]hexahydropyrrolo[1,2-a]-pyrazin-2(1H)-yl][2-fluoro-5-(trifluoromethyl)phenyl]methanone] was run?
**A.** The IC50 was 2.66 µM.
